Test results: patent US11959486B2, “Stable liquid formulation of AMG 416 (etelcalcetide)” (AMGEN INC., priority 2013, dated 2024)
Read-outs that look alike come from different tables or passages of the source. For at least one compound, name, drawing or mass did not settle the structure.

What was measured:
[1] = Stability of liquid formulations over range of pH 2-6 in succinate-buffered saline, HPLC purity, with extrapolation (Example 3); type: physicochemical
Procedure: The solution was divided evenly into five 4 mL portions which were adjusted to pH 2, 3, 4, 5 and 6, respectively, with NaOH and HCl as needed. Three 1 mL solutions were aliquoted from each portion and incubated at 2-8° C., room temperature (about 25° C.), and 40° C., respectively. The remaining 1 mL solution in each aliquot was diluted with pH 4.5 succinate buffered saline to 4 mL of 2.5 mg/mL peptide concentration, pH adjusted, and incubated in the same manner.
Based on the extent of degradation at 28 days, predictions of the extent of degradation were calculated as described, supra. Bolded values indicate conditions which show less than 10% degradation, and which may be preferred for a liquid formulation. Conditions where the sample at 28 days show slightly higher purity than the initial data are presented as 0.0% for all projections.
At each pH value, the degradation data for each of three temperatures is compared to data from the other two temperatures to calculate the observed acceleration. The predicted acceleration is by simple application of Arrhenius principles as described above.

[2] = for purity at 24 months: 3.4 mg/mL
Procedure: In this study, the long term stability of a liquid formulation of AMG 416, at a concentration of 3.4 mg/mL, was determined over a range of pH in succinate-buffered saline. USP purified water (1200 mL) was dispensed into a glass beaker. Sodium succinate (4.05 g) and sodium chloride (13.5 g) were added and stirred to dissolve. The pH was adjusted to 2.5 with 1N NaOH and/or 1N HCl as required. […] The solution was divided into three portions and the pH for each portion was adjusted to 2.5, 3.0 and 3.5, respectively. Each solution was filtered separately through 0.22 micron PVDF filter and dispense 2 mL to 5-cc vials. After being stoppered, sealed, and labeled, the vials were place in designated stability chambers at 5° C.±3, 25° C.±2, and 40° C.±2. Samples were retrieved according to schedule and diluted with deionized water to 1.0 mg/mL for HPLC analysis.

CC(=O)N[C@H](CSSC[C@H](N)C(=O)O)C(=O)N[C@H](C)C(=O)N[C@H](CCCNC(=N)N)C(=O)N[C@H](CCCNC(=N)N)C(=O)N[C@H](CCCNC(=N)N)C(=O)N[C@H](C)C(=O)N[C@H](CCCNC(=N)N)C(N)=O [AMG 416, N-acetyl-D-cysteinyl-D-alanyl-D-arginyl-D-arginyl-D-arginyl-D-alanyl-D-arginamide disulfide with L-cysteine]
Purity at 28-Day Time Point ([1]; 2.5 mg/mL, pH 2, 2-8° C.): 98.9%
Purity at 28-Day Time Point ([1]; 2.5 mg/mL, pH 2, 40° C.): 89.8%
Purity at 28-Day Time Point ([1]; 2.5 mg/mL, pH 2, RT): 98.7%
Purity at 28-Day Time Point ([1]; 2.5 mg/mL, pH 3, 2-8° C.): 99.1%
Purity at 28-Day Time Point ([1]; 2.5 mg/mL, pH 3, 40° C.): 97.2%
Purity at 28-Day Time Point ([1]; 2.5 mg/mL, pH 3, RT): 99.0%
Purity at 28-Day Time Point ([1]; 2.5 mg/mL, pH 4, 2-8° C.): 99.2%
Purity at 28-Day Time Point ([1]; 2.5 mg/mL, pH 4, 40° C.): 92.2%
Purity at 28-Day Time Point ([1]; 2.5 mg/mL, pH 4, RT): 98.9%
Purity at 28-Day Time Point ([1]; 2.5 mg/mL, pH 5, 2-8° C.): 98.9%
Purity at 28-Day Time Point ([1]; 2.5 mg/mL, pH 5, 40° C.): 73.0%
Purity at 28-Day Time Point ([1]; 2.5 mg/mL, pH 5, RT): 96.1%
Purity at 28-Day Time Point ([1]; 2.5 mg/mL, pH 6, 2-8° C.): 97.0%
Purity at 28-Day Time Point ([1]; 2.5 mg/mL, pH 6, 40° C.): 52.9%
Purity at 28-Day Time Point ([1]; 2.5 mg/mL, pH 6, RT): 80.0%
28 d Deg ([1]; 10 mg/mL, pH 2, 2-8° C.): 0.2%
Purity at 28-Day Time Point ([1]; 10 mg/mL, pH 2, 2-8° C.): 99.1%
28 d Deg ([1]; 10 mg/mL, pH 2, 40° C.): 5.3%
Purity at 28-Day Time Point ([1]; 10 mg/mL, pH 2, 40° C.): 94.0%
28 d Deg ([1]; 10 mg/mL, pH 2, RT): 0.6%
Purity at 28-Day Time Point ([1]; 10 mg/mL, pH 2, RT): 98.7%
28 d Deg ([1]; 10 mg/mL, pH 3, 2-8° C.): −0.1%
Purity at 28-Day Time Point ([1]; 10 mg/mL, pH 3, 2-8° C.): 99.4%
28 d Deg ([1]; 10 mg/mL, pH 3, 40° C.): 1.1%
Purity at 28-Day Time Point ([1]; 10 mg/mL, pH 3, 40° C.): 98.2%
28 d Deg ([1]; 10 mg/mL, pH 3, RT): 0.2%
Purity at 28-Day Time Point ([1]; 10 mg/mL, pH 3, RT): 99.1%
28 d Deg ([1]; 10 mg/mL, pH 4, 2-8° C.): −0.1%
Purity at 28-Day Time Point ([1]; 10 mg/mL, pH 4, 2-8° C.): 99.4%
28 d Deg ([1]; 10 mg/mL, pH 4, 40° C.): 14.3%
Purity at 28-Day Time Point ([1]; 10 mg/mL, pH 4, 40° C.): 85.0%
28 d Deg ([1]; 10 mg/mL, pH 4, RT): 0.7%
Purity at 28-Day Time Point ([1]; 10 mg/mL, pH 4, RT): 98.6%
28 d Deg ([1]; 10 mg/mL, pH 5, 2-8° C.): 0.3%
Purity at 28-Day Time Point ([1]; 10 mg/mL, pH 5, 2-8° C.): 99.0%
28 d Deg ([1]; 10 mg/mL, pH 5, 40° C.): 34.9%
Purity at 28-Day Time Point ([1]; 10 mg/mL, pH 5, 40° C.): 64.4%
28 d Deg ([1]; 10 mg/mL, pH 5, RT): 5.6%
Purity at 28-Day Time Point ([1]; 10 mg/mL, pH 5, RT): 93.8%
28 d Deg ([1]; 10 mg/mL, pH 6, 2-8° C.): 2.4%
Purity at 28-Day Time Point ([1]; 10 mg/mL, pH 6, 2-8° C.): 96.9%
28 d Deg ([1]; 10 mg/mL, pH 6, 40° C.): 45.7%
Purity at 28-Day Time Point ([1]; 10 mg/mL, pH 6, 40° C.): 53.6%
28 d Deg ([1]; 10 mg/mL, pH 6, RT): 27.5%
Purity at 28-Day Time Point ([1]; 10 mg/mL, pH 6, RT): 71.8%
purity by the 29 day point ([1]; pH 6, 40° C., 10 and 2.5 mg/mL (FIG. 3)): ~50%
starting purity value ([1]; time 0 of Example 3 study): 99.3%
purity at 24 months ([2]; pH 2.5, refrigerated): 94.8%
purity at 24 months ([2]; pH 3.0, refrigerated): 97.7%
purity at 24 months ([2]; pH 3.5, refrigerated): 98.3%
Purity (%) at Time (Months) 0 ([2]; pH 2.5, 5° C., 0 months, 3.4 mg/mL in succinate-buffered saline): 99.2%
Purity (%) at Time (Months) 1 ([2]; pH 2.5, 5° C., 1 month, 3.4 mg/mL in succinate-buffered saline): 99.0%
Purity (%) at Time (Months) 2 ([2]; pH 2.5, 5° C., 2 months, 3.4 mg/mL in succinate-buffered saline): 98.8%
Purity (%) at Time (Months) 3 ([2]; pH 2.5, 5° C., 3 months, 3.4 mg/mL in succinate-buffered saline): 98.8%
Purity (%) at Time (Months) 5 ([2]; pH 2.5, 5° C., 5 months, 3.4 mg/mL in succinate-buffered saline): 98.1%
Purity (%) at Time (Months) 12 ([2]; pH 2.5, 5° C., 12 months, 3.4 mg/mL in succinate-buffered saline): 96.8%
Purity (%) at Time (Months) 24 ([2]; pH 2.5, 5° C., 24 months, 3.4 mg/mL in succinate-buffered saline): 94.8%
